The supplement of paper PMC12217912
This is one part of the list. The full chains were built here from the parent and the listed change. Values near 0.05 are background.

B1: TEV protease; numbered along this chain (parent)
chain: MGESLFKGPRDYNPISSSICHLTNESDGHTTSLYGIGFGPFIITNKHLFRRNNGTLVVQSLHGVFKVKDTTTLQQHLVDGRDMIIIRMPKDFPPFPQKLKFREPQREERICLVTTNFQTKSMSSMVSDTSCTFPSGDGIFWKHWIQTKDGQCGSPLVSTRDGFIVGIHSASNFTNTNNYFTSVPKNFMELLTNQEAQQWVSGWRLNADSVLWGGHKVFMVKPEEPFQPVKEATQL

Variants of: B1
Experiment: raw area under fraction-flipped curve 0-4 h after induction (AUC4h, not background-subtracted), DNA-recorder readout of cleavage of the substrate (dimensionless); higher = more cleavage of the substrate by the protease variant
Conditions: temperature: 34 °C; time window: 0-4 h after rhamnose induction
Description: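 In vivo DNA recorder in E. coli TOP10(DE3) ΔrhaA at 34 °C. Each TEVp single-site mutant (parent TEVp 0) is paired with a single-site variant of the 7-mer TEVs (canonical ENLYFQ|S). The substrate sits between flexible linkers in a Bxb1-sfGFP-TEVs-SsrA fusion, so cleavage stabilises Bxb1 and speeds flipping of a recombination array, read by NGS. The value is the raw area under the fraction-flipped curve over 0-4 h after rhamnose induction (AUC4h), with ≥20 reads per time point. It is not background-subtracted; inactive controls average about 0.047.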
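Note: Bxb1 expression induced with 0.2% (w/v) L-rhamnose at OD600 near 0.5, cultures sampled hourly, flipped fraction per protease–substrate barcode pair counted by paired-end Illumina sequencing.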

Variant	area with substrate ENAYFQS	area with substrate ENDYFQS	area with substrate ENGYFQS	area with substrate ENHYFQS	area with substrate ENIYFQS	area with substrate ENNYFQS	area with substrate ENPYFQS	area with substrate ENQYFQS	area with substrate ENVYFQS	area with substrate ENYYFQS	area with substrate ENCYFQS	area with substrate ENEYFQS	area with substrate ENFYFQS	area with substrate ENSYFQS	area with substrate ENTYFQS	area with substrate ENKYFQS	area with substrate ENMYFQS	area with substrate ENRYFQS	area with substrate ENWYFQS
MGESLFKGPRDYNPISSSICHLTNESDGHTTSLIGIGFGPFIITNKHLFRRNNGTLVVQSLHGVFKVKDTTTLQQHLVDGRDMIIIRMPKDFPPFPQKLKFREPQREERICLVTTNFQTKSMSSMVSDTSCTFPSGDGIFWKHWIQTKDGQCGSPLVSTRDGFIVGIHSASNFTNTNNYFTSVPKNFMELLTNQEAQQWVSGWRLNADSVLWGGHKVFMVKPEEPFQPVKEATQL [Y34I]	0.0596	0.0685	0.0587	0.0619	0.101	0.0631	0.0469	0.0682	0.0586	0.0453									
MGESLFKGPRDYNPISSSICHLTNESDGHTTSLYGIGFGPFNITNKHLFRRNNGTLVVQSLHGVFKVKDTTTLQQHLVDGRDMIIIRMPKDFPPFPQKLKFREPQREERICLVTTNFQTKSMSSMVSDTSCTFPSGDGIFWKHWIQTKDGQCGSPLVSTRDGFIVGIHSASNFTNTNNYFTSVPKNFMELLTNQEAQQWVSGWRLNADSVLWGGHKVFMVKPEEPFQPVKEATQL [I42N]	0.0371	0.0604	0.0312	0.0444	0.0281	0.0313	0.0545	0.0468	0.0437	0.0497	0.0418	0.0368	0.0204	0.0465	0.0503				
MGESLFKGPRDYNPISSSICHLTNESDGHTTSLYGIGFGPFHITNKHLFRRNNGTLVVQSLHGVFKVKDTTTLQQHLVDGRDMIIIRMPKDFPPFPQKLKFREPQREERICLVTTNFQTKSMSSMVSDTSCTFPSGDGIFWKHWIQTKDGQCGSPLVSTRDGFIVGIHSASNFTNTNNYFTSVPKNFMELLTNQEAQQWVSGWRLNADSVLWGGHKVFMVKPEEPFQPVKEATQL [I42H]	0.0393	0.0315	0.0472	0.082				0.0501		0.0341		0.0444			0.0313	0.0303	0.0428		
MGESLFKGPRDYNPISSSICHLTNESDGHTTSLYGIKFGPFIITNKHLFRRNNGTLVVQSLHGVFKVKDTTTLQQHLVDGRDMIIIRMPKDFPPFPQKLKFREPQREERICLVTTNFQTKSMSSMVSDTSCTFPSGDGIFWKHWIQTKDGQCGSPLVSTRDGFIVGIHSASNFTNTNNYFTSVPKNFMELLTNQEAQQWVSGWRLNADSVLWGGHKVFMVKPEEPFQPVKEATQL [G37K]	0.0448	0.0568	0.0532	0.0417	0.0434	0.0473	0.0475	0.0485	0.0505		0.0444	0.0477	0.0521	0.0506	0.0577		0.0527	0.0477	0.0515
MGESLFKGPRDYNPISSSICHLTNESDGHTTSLYGINFGPFIITNKHLFRRNNGTLVVQSLHGVFKVKDTTTLQQHLVDGRDMIIIRMPKDFPPFPQKLKFREPQREERICLVTTNFQTKSMSSMVSDTSCTFPSGDGIFWKHWIQTKDGQCGSPLVSTRDGFIVGIHSASNFTNTNNYFTSVPKNFMELLTNQEAQQWVSGWRLNADSVLWGGHKVFMVKPEEPFQPVKEATQL [G37N]	0.0631	0.0821		0.0577		0.0485	0.0757		0.0505		0.0595		0.0591	0.0535		0.0556		0.0419	0.0525
MGESLFKGPRDYNPISSSICHLTNESDPHTTSLYGIGFGPFIITNKHLFRRNNGTLVVQSLHGVFKVKDTTTLQQHLVDGRDMIIIRMPKDFPPFPQKLKFREPQREERICLVTTNFQTKSMSSMVSDTSCTFPSGDGIFWKHWIQTKDGQCGSPLVSTRDGFIVGIHSASNFTNTNNYFTSVPKNFMELLTNQEAQQWVSGWRLNADSVLWGGHKVFMVKPEEPFQPVKEATQL [G28P]	0.0592	0.0612	0.0601	0.066	0.0845	0.0573	0.0524	0.0698	0.0583	0.0645	0.0543		0.0641	0.0633	0.0562			0.0563	
MGESLFKGPRDYNPISSSICHLTNESDWHTTSLYGIGFGPFIITNKHLFRRNNGTLVVQSLHGVFKVKDTTTLQQHLVDGRDMIIIRMPKDFPPFPQKLKFREPQREERICLVTTNFQTKSMSSMVSDTSCTFPSGDGIFWKHWIQTKDGQCGSPLVSTRDGFIVGIHSASNFTNTNNYFTSVPKNFMELLTNQEAQQWVSGWRLNADSVLWGGHKVFMVKPEEPFQPVKEATQL [G28W]	0.0537	0.0583	0.0537	0.0597	0.0739	0.053	0.0675	0.0569	0.0744	0.0561	0.0605		0.0467	0.0571	0.0657	0.0713	0.0557	0.0522	0.019
MGESLFKGPRDYNPISSSICHLTNESDRHTTSLYGIGFGPFIITNKHLFRRNNGTLVVQSLHGVFKVKDTTTLQQHLVDGRDMIIIRMPKDFPPFPQKLKFREPQREERICLVTTNFQTKSMSSMVSDTSCTFPSGDGIFWKHWIQTKDGQCGSPLVSTRDGFIVGIHSASNFTNTNNYFTSVPKNFMELLTNQEAQQWVSGWRLNADSVLWGGHKVFMVKPEEPFQPVKEATQL [G28R]	0.0744	0.066		0.0628	0.104	0.0422		0.0604	0.0767			0.0449	0.052	0.0579	0.071	0.0614	0.0798	0.0717	0.0515
MGESLFKGPRDYNPISSSICHLTNESDGHTTSLYGIGFGEFIITNKHLFRRNNGTLVVQSLHGVFKVKDTTTLQQHLVDGRDMIIIRMPKDFPPFPQKLKFREPQREERICLVTTNFQTKSMSSMVSDTSCTFPSGDGIFWKHWIQTKDGQCGSPLVSTRDGFIVGIHSASNFTNTNNYFTSVPKNFMELLTNQEAQQWVSGWRLNADSVLWGGHKVFMVKPEEPFQPVKEATQL [P40E]	0.0574	0.065						0.056		0.0348	0.0655	0.0596		0.0604	0.0594			0.0749	
